From the supplement of paper PMC4967469
A lower IC50 marks a more sensitive line; a fit beyond the top or the lowest dose is shown as a bound at that dose. AUC is the area under the same curve over the 256-fold range up to the top dose, as a fraction; the more sensitive the line, the further below 1. For part of these data: The top dose, if marked as inferred, was derived from the fitted curves, not read from the paper. For part of these data: Drugs with an entry number were screened twice under separate entries, and the two screens often disagree.

How the values were obtained:
Experiment in all cases: Viability of human cancer cell lines after 72 h of drug (GDSC screen)
GSK690693 = compound: CCn1c(-c2nonc2N)nc2c(C#CC(C)(C)O)ncc(OC[C@H]3CCCNC3)c21 [GSK690693]; details: top dose 10.24 µM; top dose inferred
Description: (§1)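 Human cancer cell lines in 384-well plates, medium with 10% serum, drug for 72 h over a 256-fold dose range (nine 2-fold or five 4-fold steps up to the top dose). Adherent lines were fixed and stained with the nucleic acid dye Syto60, suspension lines read with resazurin; signal relative to control wells, capped at 0 and 100%. One two-parameter sigmoid per drug and line, fitted in a mixed model over all curves with the slope shared within a line.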

PI-103 = compound: Oc1cccc(-c2nc(N3CCOCC3)c3oc4ncccc4c3n2)c1 [PI-103]; details: top dose 10.24 µM
Description: as §1

WH-4-023 = compound: COc1ccc(N(C(=O)Oc2c(C)cccc2C)c2ccnc(Nc3ccc(N4CCN(C)CC4)cc3)n2)c(OC)c1 [WH-4-023]; details: top dose 5.12 µM; top dose inferred
Description: as §1

UNC0638 = compound: COc1cc2c(NC3CCN(C(C)C)CC3)nc(C3CCCCC3)nc2cc1OCCCN1CCCC1 [UNC0638]
Description: as §1

SB-505124 = compound: Cc1cccc(-c2[nH]c(C(C)(C)C)nc2-c2ccc3c(c2)OCO3)n1 [SB-505124]; details: top dose 10 µM; top dose inferred
Description: as §1

BX-795 = compound: O=C(NCCCNc1nc(Nc2cccc(NC(=O)N3CCCC3)c2)ncc1I)c1cccs1 [BX-795]; details: top dose 5 µM; top dose inferred
Description: as §1

[1] = top dose 40 µM, screen: GDSC drug entry 245
[2] = top dose 20 µM, screen: GDSC drug entry 1236, top dose inferred

Row | Cell Line | AUC (GSK690693) | IC50 (GSK690693) [µM] | AUC (PI-103) | IC50 (PI-103) [µM] | AUC (WH-4-023) | IC50 (WH-4-023) [µM] | AUC (UNC0638; [1]) | IC50 (UNC0638; [1]) [µM] | AUC (SB-505124) | IC50 (SB-505124) [µM] | AUC (UNC0638; [2]) | IC50 (UNC0638; [2]) [µM] | AUC (BX-795) | IC50 (BX-795) [µM]
1 | BC-3 (B-cell lymphoma, suspension) | 0.833 | 5.64 | 0.974 | > 10.2 | 0.986 | > 5.12 | 0.662 | 6.69 | – | – | – | – | – | –
2 | CAL-148 (breast, suspension) | 0.464 | 0.513 | 0.847 | 6.71 | 0.989 | > 5.12 | 0.806 | 18.6 | – | – | – | – | – | –
3 | COLO-829 (melanoma, adherent) | 0.941 | > 10.2 | 0.442 | 0.412 | 0.488 | 0.292 | 0.625 | 6.49 | 0.975 | > 10 | 0.817 | 19 | – | –
4 | CP67-MEL (melanoma, adherent) | – | – | – | – | 0.794 | 4.93 | – | – | – | – | – | – | – | –
5 | ES3 (Ewing sarcoma, adherent) | 0.512 | 0.693 | 0.433 | 0.417 | 0.98 | > 5.12 | 0.736 | 12.3 | 0.968 | > 10 | 0.737 | 6.19 | 0.806 | 2.71
6 | EW-12 (Ewing sarcoma, suspension) | – | – | – | – | 0.977 | > 5.12 | – | – | – | – | – | – | – | –
7 | H-EMC-SS (chondrosarcoma, adherent) | 0.885 | > 10.2 | 0.63 | 1.63 | 0.738 | 1.91 | 0.856 | > 40 | – | – | – | – | 0.876 | > 5
8 | HCC1599 (breast, suspension) | 0.713 | 2.82 | 0.424 | 0.384 | 0.943 | > 5.12 | 0.699 | 9.95 | – | – | – | – | – | –
9 | HCC-33 (small cell lung carcinoma, adherent) | 0.927 | > 10.2 | 0.68 | 2.05 | 0.985 | > 5.12 | 0.701 | 9.26 | – | – | – | – | – | –
10 | HCE-4 (oesophagus, adherent) | 0.992 | > 10.2 | 0.992 | > 10.2 | 0.922 | > 5.12 | 0.982 | > 40 | 0.983 | > 10 | 0.896 | 18.4 | – | –
11 | HEL (acute myeloid leukaemia, semi-adherent) | 0.99 | > 10.2 | 0.535 | 0.786 | 0.986 | > 5.12 | 0.757 | 11.7 | 0.991 | > 10 | 0.843 | 10.8 | – | –
12 | HL-60 (acute myeloid leukaemia, suspension) | 0.968 | > 10.2 | 0.293 | 0.179 | 0.99 | > 5.12 | 0.725 | 10.1 | 0.98 | > 10 | 0.832 | 11 | 0.83 | 2.72
13 | HT-144 (melanoma, adherent) | 0.984 | > 10.2 | 0.971 | > 10.2 | 0.895 | > 5.12 | 0.814 | 25.1 | 0.982 | > 10 | 0.806 | 11.7 | 0.892 | > 5
14 | Hs-445 (Hodgkin lymphoma, suspension) | 0.671 | 1.84 | 0.334 | 0.23 | 0.964 | > 5.12 | 0.744 | 11.7 | 0.987 | > 10 | 0.825 | 10.8 | – | –
15 | IST-MES1 (mesothelioma, adherent) | 0.987 | > 10.2 | 0.96 | > 10.2 | 0.405 | 0.176 | 0.807 | 20.8 | 0.986 | > 10 | 0.836 | 13.4 | – | –
16 | JAR (urogenital system, adherent) | 0.884 | > 10.2 | 0.729 | 2.82 | 0.967 | > 5.12 | 0.883 | > 40 | 0.808 | 5.06 | 0.762 | 6.99 | 0.868 | 4.4
17 | KALS-1 (glioma, adherent) | 0.83 | 10 | 0.458 | 0.471 | 0.869 | > 5.12 | 0.646 | 7.41 | 0.924 | > 10 | 0.732 | 7.48 | – | –
18 | KG-1 (acute myeloid leukaemia, suspension) | 0.987 | > 10.2 | 0.301 | 0.19 | 0.9 | > 5.12 | 0.796 | 16.5 | 0.971 | > 10 | 0.986 | > 20 | 0.861 | 3.52
19 | KNS-81-FD (glioma, adherent) | 0.958 | > 10.2 | 0.768 | 5.21 | 0.977 | > 5.12 | 0.646 | 7.37 | 0.911 | > 10 | 0.944 | > 20 | 0.916 | > 5
20 | KP-N-RT-BM-1 (neuroblastoma, semi-adherent) | – | – | – | – | 0.908 | > 5.12 | – | – | – | – | – | – | – | –

Row | Cell Line | AUC (GSK690693) | IC50 (GSK690693) [µM] | AUC (PI-103) | IC50 (PI-103) [µM] | AUC (WH-4-023) | IC50 (WH-4-023) [µM] | AUC (UNC0638; [1]) | IC50 (UNC0638; [1]) [µM] | AUC (SB-505124) | IC50 (SB-505124) [µM] | AUC (UNC0638; [2]) | IC50 (UNC0638; [2]) [µM] | AUC (BX-795) | IC50 (BX-795) [µM]
21 | KP-N-YS (neuroblastoma, adherent) | 0.906 | > 10.2 | 0.398 | 0.322 | 0.795 | 2.79 | 0.574 | 4.11 | – | – | – | – | – | –
22 | LB996-RCC (kidney, adherent) | 0.98 | > 10.2 | 0.983 | > 10.2 | 0.279 | 0.0677 | 0.977 | > 40 | 0.981 | > 10 | 0.981 | > 20 | 0.869 | > 5
23 | LC-2-ad (lung adenocarcinoma, adherent) | 0.925 | > 10.2 | 0.42 | 0.385 | 0.189 | 0.0365 | 0.625 | 5.6 | 0.984 | > 10 | 0.814 | 11.3 | 0.714 | 1.28
24 | LNCaP-Clone-FGC (prostate, adherent) | 0.233 | 0.0945 | 0.32 | 0.186 | 0.972 | > 5.12 | 0.631 | 6.05 | 0.88 | > 10 | 0.74 | 6.79 | 0.942 | > 5
25 | LOXIMVI (melanoma, semi-adherent) | 0.988 | > 10.2 | 0.789 | 3.99 | 0.963 | > 5.12 | 0.784 | 15.1 | 0.976 | > 10 | 0.782 | 7.4 | 0.756 | 1.54
26 | NCI-H128 (small cell lung carcinoma, suspension) | – | – | – | – | 0.956 | > 5.12 | – | – | – | – | – | – | – | –
27 | NCI-H716 (large intestine, suspension) | 0.943 | > 10.2 | 0.787 | 5.73 | 0.945 | > 5.12 | 0.731 | 13.7 | 0.952 | > 10 | 0.798 | 12.5 | – | –
28 | NCI-H748 (small cell lung carcinoma, suspension) | 0.958 | > 10.2 | 0.511 | 0.691 | 0.934 | > 5.12 | 0.592 | 4.78 | – | – | – | – | – | –
29 | NCI-H2171 (small cell lung carcinoma, suspension) | 0.883 | 8.43 | 0.448 | 0.471 | 0.987 | > 5.12 | 0.856 | 25.6 | – | – | – | – | – | –
30 | NCI-H2196 (small cell lung carcinoma, adherent) | 0.806 | 5.54 | 0.518 | 0.719 | 0.965 | > 5.12 | 0.777 | 16.9 | – | – | – | – | – | –
31 | NK-92MI (lymphoid neoplasm, suspension) | – | – | – | – | 0.777 | 1.92 | – | – | – | – | – | – | – | –
32 | SCC-3 (B-cell lymphoma, suspension) | 0.997 | > 10.2 | 0.656 | 1.53 | 0.994 | > 5.12 | 0.79 | 12.8 | – | – | – | – | – | –
33 | SIG-M5 (acute myeloid leukaemia, suspension) | 0.632 | 1.34 | 0.042 | < 0.04 | 0.983 | > 5.12 | 0.554 | 3.38 | – | – | – | – | – | –
34 | SKM-1 (haematopoietic neoplasm, suspension) | – | – | – | – | 0.984 | > 5.12 | – | – | 0.966 | > 10 | 0.68 | 4.22 | 0.668 | 0.964
35 | SU-DHL-1 (anaplastic large cell lymphoma, suspension) | 0.945 | 9.59 | 0.204 | 0.121 | 0.995 | > 5.12 | 0.915 | 28.7 | – | – | – | – | – | –
36 | SW872 (soft tissue, adherent) | 0.989 | > 10.2 | 0.843 | 6.23 | 0.653 | 0.811 | 0.887 | 37.4 | 0.977 | > 10 | 0.93 | > 20 | – | –
37 | TALL-1 (T-cell lymphoblastic leukaemia, suspension) | 0.99 | > 10.2 | 0.895 | > 10.2 | 0.982 | > 5.12 | 0.753 | 12.8 | – | – | – | – | – | –
38 | TE-441-T (rhabdomyosarcoma, adherent) | 0.989 | > 10.2 | 0.984 | > 10.2 | 0.983 | > 5.12 | – | – | – | – | – | – | – | –
39 | TGBC24TKB (biliary tract, adherent) | 0.987 | > 10.2 | 0.985 | > 10.2 | 0.621 | 0.672 | 0.905 | > 40 | 0.952 | > 10 | 0.972 | > 20 | – | –
